From the supplement of paper PMC5499739
In all, about 16,000 sequences were measured (“Z-score”: median about -0.37, highest 2% from about 3.2 on). The list shows a part of the results.

system: RBM10 RRM1-ZnF (GST-tagged construct); experiment: RNAcompete 7-mer binding Z-score; higher = stronger binding preference
Protocol: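 RNAcompete: 20 pmol GST-tagged RBM10 RNA-binding constructs were incubated with a designed RNA pool of about 241,000 sequences up to 41 nt (1.5 nmol) on glutathione beads for 30 min at 4 °C and washed. Bound RNAs were identified by microarray hybridisation. Each RNA 7-mer is scored by a one-sided Z-score of its enrichment, computed over probes that contain the 7-mer within longer pool sequences.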

Sequence | RNAcompete 7-mer binding Z-score
UCUCAGA | -0.49
CCGACAC | -0.49
CACGGAU | 0.163
CAUUGGC | -0.444
AAGUUCC | -0.724
UGCUGCC | -0.513
GACCUCA | -0.811
AACAUUC | -0.753
AUAUUCC | -0.798
UCUAUCU | -0.646
AUAAUUC | -0.74
UUCGAAC | -0.62
AUUCGGC | -0.412
CAUGCUU | -0.867
CAGAGAU | 0.309
GCGCUUU | -0.675
GGACACG | 0.998
GUCAGAA | 0.03
CAUGAGA | -0.201
CGGGGUG | 3.76
UGGUCAU | 0.225
AGAUUGA | 0.235
GCAGGUA | 1.48
AGGCUCU | -0.636
UGUCUAG | -0.431

Sequence | RNAcompete 7-mer binding Z-score
GAAAUGA | 0.504
GUUUUGG | 1.15
ACUCGUC | -0.701
AGCAAGU | -0.181
CUCGUCA | -0.694
ACAAUAC | -0.48
CCCUGCC | -0.353
GCUUACA | -0.639
UUAAGUU | -0.409
UAAACUG | -0.285
GACUGUC | -0.678
GAACAUG | 0.433
GAACAUU | -0.373
AACUGGG | 1.96
AGAUACA | -0.49
AGGGGAG | 2.9
ACGUGGA | 2.05
AAGGCCG | 0.235
CAUCCGG | -0.269
GUUAUAG | 0.251
AUUGGAC | 0.852
GUUCCCA | -0.461
CAGCGUU | -0.493
GACGAUG | 0.641
AGGGUUG | 3.8

Sequence | RNAcompete 7-mer binding Z-score
GUACAAC | 0.0853
AAAAAUU | -0.363
GGCAGGU | 1.71
ACCCGGU | -0.415
UGACCGG | -0.0609
GCCUAAU | -0.61
CGUGAAG | 0.485
UAUGAUU | -0.347
AGGGGAC | 2.18
UCCCUCG | -0.493
AGCAUUC | -0.694
CCGUUAU | -0.746
CAGCCCC | -0.0934
GUUCACG | -0.285
GGACUCC | 0.0495
AGAUGGG | 3.01
CUCAGUU | -0.688
UGGGGUA | 3.56
GUAACUA | -0.152
GGCUCCU | -0.477
GUUCUUG | -0.412
GCAUUCU | -0.785
GGGCUUC | 0.426
AGUACCC | -0.694
UUUCUGA | -0.672

Sequence | RNAcompete 7-mer binding Z-score
GCAUAUC | -0.591
GUCAUAA | -0.516
AAGAAUA | -0.165
CUAUUAC | -0.558
GAGUAUC | -0.162
ACCCUCG | -0.707
UACGAUC | -0.402
AUGAGUC | -0.155
CUCCAGC | -0.568
AAUGUUU | -0.392
UCCCGAG | -0.493
ACAGUAA | -0.00246
AGGCGCA | 0.0528
CAGGGCC | 0.215
GUAUUCA | -0.5
UUGAGUU | -0.0674
CUAAACU | -0.678
GACGACU | -0.438
CUCUUCU | -0.909
CGGUAAU | 0.378
UCUGUAA | -0.685
GAGACUU | -0.457
UAAUUAA | -0.435
UACCCUU | -0.883
AUUGGCC | -0.233
